Results published in the supplement of paper PMC10126150.
Values marked as one replicate rest on one cluster of the flow cell; about a third of the high ones do not repeat.

Tested on: ATP
Test: switch fluorescence ratio, 500 uM ATP over buffer (Cy3 cluster intensity, sum of 5 cycles each) (fold (ratio)); higher = stronger signal-on switching upon ATP binding; sequences stand for … in TCGTCGGCAGCGTCAGATGTGTATAAGAGACAGTTTTTTTTTTTTTTTTTTTTTTTTT…TC
Conditions: aptamer strand: ATP DNA aptamer (quencher-CACCTGGGGGAGTATTGCGGAGGAAGG + anchor), 100 nM annealed; ATP concentration: 500 uM; one replicate
Procedure, shortened: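 Values give the fluorescence ratio for each switch-domain sequence, averaged from per-cluster ratios of summed target-cycle to summed buffer-cycle Cy3 intensity. The Cy3-labelled switching-strand clusters sat on a modified Illumina MiSeq flow-cell, were annealed to 100 nM quencher-labelled ATP aptamer, and were imaged in selection buffer, then after 15 min with 500 uM ATP at 22 °C. Five cycles ran with NaOH stripping and re-annealing between them, and clusters outside 100-1000 RFU were excluded.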
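Also: ATP exposure 15 min at 22 °C before imaging.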

Sequence	switch fluorescence ratio
ATGAGGATCA	0.96
CTTTTAACCC	1.06
GTCGCCGCAT	1.02
CGACGAACGT	1.08
TTAGTGGTGG	1.01
AGAAATAAAT	0.963
TGTAAGAAAC	0.978
TGCTTAAGCT	0.984
TCGAGTCCAT	0.97
CGCTGGGCGC	0.982
TCCGGGATTG	1.02
TTACACCT	1.39
AGCGCAAGGG	1.38
GGTTAGTTAA	1.01
ATGAAGTGGT	1.02
TCCTTTGCTG	1.1
CAAGCTTCGA	1.02
CTCTCGGCGG	1.03
GCGGTTAAAT	1.02
CAGGGCTGAC	1.16
CCCCGACTCA	1.57
AGGTCGGCGG	1.05
CTGTCTTACA	0.988
TAAAGGTACG	0.948
ATCGTAGCAC	1.59
CGCCGAAACT	1.08

Sequence	switch fluorescence ratio
AATGTGAGA	1.01
GTTATTTAT	0.977
TTCTTATGTT	0.988
CAAGGCGCTA	1.05
CGGTAGTCTT	0.909
AGTCTCTATG	1.02
GGAGTAGGAG	0.983
GGCAAAAACA	0.991
TATTCCTTC	1.06
CATATATAGG	0.991
TTCAATGGAG	0.977
CCACAAACAT	1.17
AGATAGTGAT	0.938
GCGAAAGGGG	0.992
CTTCCTTGTG	1.13
AGTGCCTAAG	1.01
AGCCGGGACT	1.04
TAAAAGTCGA	1.02
CATTGCAACA	1.05
GCAGAAGCTT	1.04
CATGAGCG	1.03
AAAGCTCCGT	1.07
TACACTGTTG	1.03
GTGGAACCGT	0.978
GGAAAAGAGT	1.01
AATCTGAACC	1.03

Sequence	switch fluorescence ratio
CAGCTATTAT	0.968
CATGCCCTGA	1.04
TCAAAACGCA	1.11
ACTTGATTAC	1.06
TGTCTGGATG	0.982
AGGGCTTT	0.965
GTGTGACTAG	1.04
GTTAGAGATG	1.01
ACTTGATTTC	1.01
CCCCTTATTA	1.03
CGTAGAGCAA	3.06
AAGCCTTCCA	1.88
CCATTACCGA	0.998
ATCACTTGGC	0.938
CCCCAGACGT	1.58
TAACTGGCGC	1.05
TTTAAGCGG	0.994
GGATGGT	0.959
AGGCCGGCTA	1.03
CGGTCAAC	1.04
TATGGTACCT	1.03
CCAATAATTT	0.987
AACAAATGAG	1.02
AATATCATGC	0.974
GGATGTTCAA	0.982
TGACTACCTA	1.12

Sequence	switch fluorescence ratio
GGCGAAGTCT	1.03
CCATGGGATG	1.01
TACTCTCGAA	1.02
AACCAAAGCC	1.1
TTAAGCC	1.09
TAAGATGGAA	1.01
CGAATGTTTC	1.04
TCACGGTACG	1.02
TTGTTGCCAT	1.05
ACGCTGACTG	1.19
ACGTTCGGCC	1.03
GTACTTGGAG	1.02
TAGCCGTAGT	1.01
CCTGAAGCGC	1.21
CTTCGAACCC	1.07
GCTTCTGGTG	1.05
TCGCGTTTTA	1.01
ATAATTTACA	1.02
GGAACAGGGG	1.06
TATGAAAGTC	0.963
TGGGAACAGG	1.05
ATGATATTAA	1
GGGTTGCGAT	1.02
AACCGGCAAC	1.45
ACCGATCGCC	1.91
CGCCGGCAGC	1.15

Sequence	switch fluorescence ratio
TGCAATTGAT	1.07
TCGATACCTT	1.12
CGGAGAAAGT	1.01
TATTCGTCGA	0.989
CCAATTTTCC	1.09
ACCTTAAGCG	0.995
CTATAAATTT	1.04
TCTCTTTTGT	0.97
GATGTTAGCC	1
CGTGAACGC	1.01
CGAAATAAGG	0.969
ATCACGGAAT	1.09
GGCGGTGCAG	0.984
TAATACGAGG	0.975
GCTTGCTCTT	1.01
ATTAAAAAT	1.36
ATATTGGCTG	1.02
ATTGGATCCT	1.01
CGGTCTAGCA	1.02
AAGACCTTGT	1.05
TAGACCTGTT	0.972
ACGGAGATGG	1
CCCGGAGAAA	1.59
GCGAGCGCAT	1.09
ATCTGGATAA	1
GATCCCCGCA	1.25

Sequence	switch fluorescence ratio
TTCATCCCCT	1.05
CGTCAGTAAA	0.972
AGTGTCTATC	0.961
TAGAACTGCA	1.03
CCGGAGTGTT	5.05
CGAACTACGC	2
GGGACCCGCT	0.991
CTAAATACAA	1.03
ATGGCTGTTA	1.03
AGGTGATGCG	1
GAAATATTCC	1.31
GCTACCAGCC	1.04
AAGCGGACTG	0.999
GACATGTGTG	1.01
ATAAACTCAA	1.01
GGAATTTATA	0.983
GGGACATAGG	0.979
AGTGAGTGGT	0.935
ATCGGCCAGA	1.02
AAGCTCCTTA	1
GCAGTAGCCC	1.08
TAATGATCCG	1.08
CGTCTTTGT	0.994
GATGCTGGAG	1.06
GAGTTTTT	0.928
TAGTAGATGG	1.03

Sequence	switch fluorescence ratio
TTTGATCTAC	0.997
CCGATGATCT	1.11
CCTCGTTCCC	1.82
ACAGCAGAGA	1.04
GAAAGGCGTT	1.25
GGTGGGGTG	1.05
TAAGTTAAGA	1.05
CATAGTGTTC	1.01
TTGATATAAG	1.26
CGAGTCGGCT	0.975
GATTCAGTGC	1.06
GTGGCTTGCG	0.981
AGCGTAGGTC	1.12
GTCCCGGTTC	0.998
GCTTCTTGAG	1.09
CTTGTGGGAA	0.98
GATGTTTCGG	0.969
ACATTGTTGA	1
TGGCCAAAAG	1
GATTGTTCAT	1.02
TTGAACTGGG	1.04
AAAGCGGCGG	0.972
CGGGAGCCAT	0.991
GGAGCTTAAA	1.01
ACTTCTTTTG	0.951
GCATGGCATG	0.968

Sequence	switch fluorescence ratio
GCTTGATTTT	0.998
CGTAATTGTG	1.08
ACTCTGTGCA	1.09
ACTAAGGTTT	1.03
GAGGGAACAT	0.974
AGACTGGTT	0.998
ACCTGAAGGG	1
CAGGCTGGCT	1.08
ACGGCGTCTT	1.02
TTATTGCGGC	1.09
CAGTCCTTGC	1.24
ATGCGTAGAG	1.02
CATTAACCTC	1.05
CCGTATGGCA	1.03
CCTATAGTCA	1.07
GAGTAGATTT	0.973
GGAAATACGT	1.02
AATTTAGTGT	0.991
CATAAATCAC	1.07
